{"source": "paper PMC6602471", "note": "The entries are a selection whose mix differs from that of the whole data set. At the low end of the ranking, values are background and their order means little."}
{"target": "RUNX1 (UniProt Q01196)", "sequence (Q01196 whole entry)": "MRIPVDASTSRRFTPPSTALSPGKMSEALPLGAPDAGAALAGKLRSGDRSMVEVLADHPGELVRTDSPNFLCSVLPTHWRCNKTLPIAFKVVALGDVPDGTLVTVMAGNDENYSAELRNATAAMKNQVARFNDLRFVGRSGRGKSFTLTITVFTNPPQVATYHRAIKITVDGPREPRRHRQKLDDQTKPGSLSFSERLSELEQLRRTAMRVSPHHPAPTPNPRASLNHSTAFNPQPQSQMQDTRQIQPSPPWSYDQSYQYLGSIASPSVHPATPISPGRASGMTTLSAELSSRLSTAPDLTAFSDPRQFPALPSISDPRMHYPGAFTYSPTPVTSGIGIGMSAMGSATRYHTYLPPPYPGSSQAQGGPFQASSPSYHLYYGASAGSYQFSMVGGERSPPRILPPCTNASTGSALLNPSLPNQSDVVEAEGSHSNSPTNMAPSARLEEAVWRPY", "assay": "custom PBM", "settings": "custom protein-binding microarray; buffer, salt, pH and temperature not stated; high values mean tight binding; double strand, one strand shown"}
{"sequence": "GCATACGGCTGACGCCAGCCACATACGCACACATACACATACACACATACACATACGCAC", "binding signal (log fluorescence intensity)": 10.9}
{"sequence": "GCGCACATGTCCCGTAAATCATACACGCACACATACACATACACACATACACATACGCAC", "binding signal (log fluorescence intensity)": 10.9}
{"sequence": "GCGCACAATTCCCGTAAATCATACACGCACACATACACATACACACATACACATACGCAC", "binding signal (log fluorescence intensity)": 10.8}
{"sequence": "GCATACGGCTGACGTCAGCTACATACGCACACATACACATACACACATACACATACGCAC", "binding signal (log fluorescence intensity)": 10.9}
{"sequence": "CGCGCACTCTGTTGTTGCGCACATACGCACACATACACATACACACATACACATACGCAC", "binding signal (log fluorescence intensity)": 10.9}
{"sequence": "GCGCACATTTCCCGTAAGTCATACACGCACACATACACATACACACATACACATACGCAC", "binding signal (log fluorescence intensity)": 10.9}
{"sequence": "CGCGCACTCTGTGGTTGAGCACATACGCACACATACACATACACACATACACATACGCAC", "binding signal (log fluorescence intensity)": 11.5}
{"sequence": "CGCGCACTCTGTCGTTGCGCACATACGCACACATACACATACACACATACACATACGCAC", "binding signal (log fluorescence intensity)": 10.9}
{"sequence": "GCGCACACTTCCCGTAAATCATACACGCACACATACACATACACACATACACATACGCAC", "binding signal (log fluorescence intensity)": 10.9}
{"sequence": "GCATACGGCTGACCTCAGCCACATACGCACACATACACATACACACATACACATACGCAC", "binding signal (log fluorescence intensity)": 11}
{"sequence": "CGCGCACTCTGTAGTTGCGCACATACGCACACATACACATACACACATACACATACGCAC", "binding signal (log fluorescence intensity)": 10.9}
{"sequence": "GCGCACATTTCCCGAAAATCATACACGCACACATACACATACACACATACACATACGCAC", "binding signal (log fluorescence intensity)": 10.9}
{"sequence": "CGCGCACTCTGTGGTGGCGCACATACGCACACATACACATACACACATACACATACGCAC", "binding signal (log fluorescence intensity)": 11.1}
{"sequence": "GCGCAGATTTCCCGTAAATCATACACGCACACATACACATACACACATACACATACGCAC", "binding signal (log fluorescence intensity)": 10.9}
{"sequence": "GCGCACATTTCCCGGAAATCATACACGCACACATACACATACACACATACACATACGCAC", "binding signal (log fluorescence intensity)": 10.8}
{"sequence": "GCGCACCTTTCCCGTAAATCATACACGCACACATACACATACACACATACACATACGCAC", "binding signal (log fluorescence intensity)": 10.9}
{"sequence": "CGCGCACTCTTTGGTTGCGCACATACGCACACATACACATACACACATACACATACGCAC", "binding signal (log fluorescence intensity)": 10.9}
{"sequence": "GCATACGGCTGACGACAGCCACATACGCACACATACACATACACACATACACATACGCAC", "binding signal (log fluorescence intensity)": 10.9}
{"sequence": "GCGCACATTTCCCGTAGATCATACACGCACACATACACATACACACATACACATACGCAC", "binding signal (log fluorescence intensity)": 10.9}
{"sequence": "GCATACGGCTGAAGTCAGCCACATACGCACACATACACATACACACATACACATACGCAC", "binding signal (log fluorescence intensity)": 10.9}
{"sequence": "CGCGCACTCTGTGATTGCGCACATACGCACACATACACATACACACATACACATACGCAC", "binding signal (log fluorescence intensity)": 10.9}
{"sequence": "GCATACGGCTGACGTTAGCCACATACGCACACATACACATACACACATACACATACGCAC", "binding signal (log fluorescence intensity)": 10.8}
